# Measured values reported in article PMC12040169 (PLOS Biology, 2025).
# This is one part of the list.
# Test system: T1, C. trachomatis L2/434/Bu expressing GFP (CTL2-GFP)
# T1 construct: L2/434/Bu GFP intracellular growth in HeLa cells
# Parameters: species or system HeLa; C. trachomatis total inclusion area by high-content imaging, normalised to DMSO
# Settings: total inclusion area; 28.5 h, 10 µM; inhibitor
# How it was run: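 Following bulk GFP and resorufin fluorescence reads, infected cells were fixed, Hoechst-stained and imaged on a high-content platform. Inclusion total area and number per well served as growth proxies; nuclei counts indicated host viability. MICs were derived as for the fluorescence assay.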
row,SMILES,% of control remaining
1,Cc1c(S(=O)(=O)Nc2ccc3cn[nH]c3c2)cnn1-c1ccccc1 [CBK067149],111.133
2,O=C(NCCc1nc2ccccc2[nH]1)c1cccs1 [CBK020529],45.9493
3,COc1ccccc1NC(=N)Nc1nc(CSc2nc3ccccc3s2)cc(=O)[nH]1 [CBK269046],95.4236
4,Cc1c(C#N)c(=O)oc2ccccc12 [CBK007705],102.626
5,CCN(CC)CCNc1nc(-c2cccc(Cl)c2)nc2ccccc12 [CBK267265C],40.0935
6,CCC(COC)NS(=O)(=O)c1ccc(C(C)C)cc1 (centres unmarked) [CBK044587],97.6496
7,CC(=O)NC1(c2ccc(F)cc2)CCN(C(=O)C2CCC2)CC1 [CBK283492],71.8569
8,COc1ccc(NC(=O)C2C3CCC(C3)C2C(=O)O)cc1OC (centres unmarked) [CBK263684],106.135
9,COc1ccc(CCNC(=O)c2ncoc2-c2cccs2)cc1 [CBK283663],42.0345
10,CS(=O)(=O)N(CC(=O)N/N=C/c1ccncc1)c1ccccc1Br [CBK263911],107.714
11,CCc1nc(C2CCCN2c2ncc(C#N)cc2Cl)no1 (centres unmarked) [CBK305183],28.6889
12,CNCCOc1ncccc1OCc1ccccc1 [CBK036306],92.6905
13,COC(=O)c1cc(-c2ccccc2OCc2ccccc2)ccc1NC(=O)c1ccc(Cl)cc1Cl [CBK000415],132.448
14,O=C(NCc1cccs1)c1cc(S(=O)(=O)N2CCOCC2)c(Cl)cc1Cl [CBK269657],75.2577
15,Cc1ccc(C(=O)C2=C(O)C(=O)N(CCN(C)C)C2c2ccccn2)o1 (centres unmarked) [CBK266536],117.726
16,COc1ccc2cc(C(=O)N(CCO)Cc3ccc(C)s3)n(C)c2c1 [CBK306831],58.5002
17,Cc1cc(C)c2c(CC(=O)NCCCN3CCOCC3)coc2c1 [CBK268307],91.6358
18,O=C(/C=C/c1cn(C2CC(O)C(CO)O2)c(=O)[nH]c1=O)NCCNC(=O)C(F)(F)F (centres unmarked) [CBK201214],122.685
19,CCN(CC)CCCOC(=O)C(CCSC)c1ccccc1C (centres unmarked) [CBK023177C],32.5014
20,Cc1nc(CC(=O)O)c(-c2ccccc2)s1 [CBK264988],100.373
21,Cc1ccsc1CCNC(=O)C1(Oc2cccnc2C)CCNCC1 [CBK307374],83.4471

row,SMILES,% of control remaining
1,FC(F)(F)c1ccc(-c2nnc(C3CC3)o2)cc1 [CBK021992],51.8382
2,Cc1cc(C)n(CC2CCCCN2CC(=O)NC(C)c2ccco2)n1 (centres unmarked) [CBK305331],96.8886
3,O=C(O)CCSc1nnnn1-c1ccccc1 [CBK287217],118.751
4,O=C(COc1ccc(CCO)cc1)Nc1ccccc1-c1ccccc1 [CBK269666],79.1274
5,CC(Cc1nc(-c2cnnn2C)cs1)n1cc(Cl)cn1 (centres unmarked) [CBK304245],52.6535
6,CC(Cc1nc(-c2nccn2C(C)C)cs1)n1cc(Cl)cn1 (centres unmarked) [CBK304251],13.1385
7,COc1ccccc1OCCSc1nnnn1C1CCCCC1 [CBK141884],73.0844
8,Cc1cc2ccccc2c(=O)n1CCO [CBK015621],51.1503
9,COc1cccc(C(=O)NC(c2ccc([N+](=O)[O-])cc2)c2c(O)ccc3ccccc23)c1 (centres unmarked) [CBK263971],103.747
10,Cc1ccc(CSCCNS(=O)(=O)c2ccsc2C(=O)O)cc1 [CBK296727],82.1248
11,COc1ccc(-c2ccc(OC)cc2C(=O)Nc2ccc3c(c2)OCC(=O)N3)cc1 [CBK285821],99.9715
12,O=C(O)C1CCCCC1C(=O)NCc1cccnc1 (centres unmarked) [CBK261695],88.7623
13,Cn1c(=O)c2c(nc(NCCCO)n2C/C=C/c2ccccc2)n(C)c1=O [CBK268940],72.7779
14,COc1cc2c(cc1CNC(=O)c1cn(CCN)nn1)CCC2 [CBK306886],17.2405
15,Cn1c(-c2ccc(C(=O)O)cc2)cc2oc(-c3ccccc3)nc2c1=O [CBK074957],88.876
16,NC(=O)c1ccc(NC(=O)c2sc3ccccc3c2Cl)cc1 [CBK262643],96.8952
17,Cc1ccc(Cl)cc1NC(=O)c1cc(NC(=O)C2C3C=CC(C3)C2C(=O)O)ccc1N1CCCCC1 (centres unmarked) [CBK268194],94.6589
18,Cc1cc(C(=O)NCCO)ccc1Br [CBK175092],114.141
19,CCc1csc(C2CN3CCCC3CO2)n1 (centres unmarked) [CBK304793],55.9829
20,CCN(CC)C(=O)C1CCCN(C(=O)Nc2cccc(OC)c2)C1 (centres unmarked) [CBK005159],105.7
21,Cc1ccc(Oc2ccc(C(=O)NCC(=O)O)cc2)cc1C [CBK286570],92.4114

row,SMILES,% of control remaining
1,CC1=CCC(C(=O)O)C(C(=O)Nc2cccnc2)C1 (centres unmarked) [CBK265895],94.2504
2,O=C(NC1(c2ccccc2)CC1)c1ccc(-n2cnnc2)cc1 [CBK282778],102.39
3,CC(C)(C)OC(=O)NCc1ccc(CNCc2ccccc2Br)cc1 [CBK056701],75.616
4,Cn1cc([C@@H]2CN(Cc3cccs3)C[C@H]2N)c2ccncc21 [CBK285320],109.868
5,NS(=O)(=O)c1ccc(NC(=O)CSc2ccc([N+](=O)[O-])cn2)cc1 [CBK269002],47.2302
6,O=S(=O)(c1cc(Cl)ccc1Cl)N1CCSC1 [CBK097980],106.029
7,O=c1[nH]c2c(c(=O)[nH]1)[C@H]1[C@H](O)[C@H](O)C[C@H]1[C@@H](c1ccccc1)N2 [CBK303239],82.9078
8,Cc1nn(CC(=O)C(C)(C)C)c(=O)c2cc3sccc3n12 [CBK284111],89.6248
9,CC(C)(C)C(=O)Nc1ccc(Cc2ccc(NC(=O)C(C)(C)C)c(C(=O)O)c2)cc1C(=O)O [CBK261393],95.1092
10,C=CCOc1ccc(-c2nn(-c3ccccc3)cc2/C=C2/SC(=S)N(CC(=O)O)C2=O)c(C)c1 [CBK265062],108.802
11,CC(=O)c1c(C)n(O)c2ccc(Cl)cc2c1=O [CBK217746],81.7522
12,O=C1CCc2cccc(OCCOc3nccnc3N3CCNCC3)c21 [CBK200001G],90.1889
13,CCN1CCCC(NC(=O)COc2nn(C)c3nc(C)cc(C)c23)C1 (centres unmarked) [CBK305224],30.4379
14,O=c1[nH]ccn1CCNc1ccc(-c2cccc(Cl)c2Cl)cn1 [CBK037745],133.86
15,COCC1(C(=O)N(C)Cc2nnc(-c3ccccc3)o2)CCC1 [CBK306987],79.5808
16,O=C(C1CC1)N1CCC(Cn2nc(-c3cccs3)ccc2=O)CC1 [CBK284039],101.463
17,COc1ccc(NC(=O)C2CCCCC2C(=O)O)c(C)c1 (centres unmarked) [CBK270301],68.7176
18,O=C(O)C1CC(O)CN1S(=O)(=O)c1ccc([N+](=O)[O-])cc1 (centres unmarked) [CBK266158],120.424
19,O=C(CCN1C(=O)[C@@H]2Cc3ccccc3CN2C1=O)N[C@H](C(=O)O)c1ccccc1 [CBK286751],86.4476
20,COCCN1CCN(C(=O)NCCc2c(C)[nH]c3ccc(Cl)cc23)CC1 [CBK307637],62.034
21,CN1CCC2(CC1)CC(NC(=O)c1ccco1)c1ccccc1O2 (centres unmarked) [CBK283804],82.1799

row,SMILES,% of control remaining
1,COc1ccc(-c2nc(NC(=O)CC#N)cnc2-c2ccc(F)cc2)cc1 [CBK037198],129.769
2,C[C@@H](Cn1nnc2ccccc21)NC(=O)Cc1ccccc1F [CBK282305],97.012
3,COc1cccc2sc(Nc3nc(-c4cccnc4)cs3)nc12 [CBK287470],61.7441
4,CN1CCN(C(=O)c2ccsc2NS(=O)(=O)/C=C/c2ccccc2)CC1 [CBK042267],99.6255
5,Cc1cc(OCCC#N)cc(C)c1Cl [CBK015872],84.9971
6,CC(=O)N(C)c1ccc(NC(=O)/C=C/C(=O)O)cc1 [CBK287162],111.104
7,CC(C)C[C@@H]1N[C@H](C(=O)NC2CC2)Cc2cn(Cc3nccn3C)c3cccc1c23 [CBK289423],112.784
8,Cc1nn(C)c(N2CCNCC2)c1NC(=O)c1ccccc1 [CBK050257T],105.765
9,O=C(Cc1nnc(-c2ccncc2)o1)NCCC1=CCCCC1 [CBK288605],86.7086
10,COC(=O)Cn1c(-c2ccc(OC)cc2)cc2cccnc21 [CBK282268],87.2929
11,C[C@H](c1ccccc1)N1C(=O)[C@@H]2CN(C(=O)CC(C)(C)CC(=O)O)CCN2C1=O [CBK289639],97.4632
12,CCNC(=O)C1=C(C(=O)NCC)N2C(=NC(C)(C)c3ccccc32)S1 [CBK010172],90.5591
13,Cn1ccc(C2CCCCCN2C(=O)Cc2cccs2)n1 (centres unmarked) [CBK283047],78.524
14,Cc1cc(C(=O)Nc2ccc(S(=O)(=O)Nc3onc(C)c3C)cc2)no1 [CBK268166],44.5738
15,O=C(O)CNS(=O)(=O)c1cc(Cl)sc1Cl [CBK034452],73.1976
16,Cc1c(C(C)NC(=O)Nc2ccc(F)cc2F)cnn1C (centres unmarked) [CBK266986],89.1533
17,CC(O)c1cccc(NC(=O)CCC(=O)O)c1 (centres unmarked) [CBK264691],103.619
18,C=Cn1ncc(CN2CCc3[nH]c4ccc(OCC)cc4c3C2)c1C [CBK282574],117.304
19,CN(C)c1ccc2cccc(O)c2n1 [CBK149729],73.641
20,O=C(O)CSc1nnc2n(-c3ccccc3)c3ccccc3n12 [CBK268557],102.316
